A lower IC50 marks a more sensitive line; a fit beyond the top or the lowest dose is shown as a bound at that dose. AUC is the area under the same curve over the 256-fold range up to the top dose, as a fraction: 1 means no effect, lower means more sensitive. The top dose, if marked as inferred, is not printed in the source and was worked back from the curve model.
Compound: O=C1NC(=NCc2cccs2)S/C1=C\c1ccc2ncccc2c1 [RO-3306]
Experiment: Viability of human cancer cell lines after 72 h of drug (GDSC screen)
Settings: top dose 5 µM; top dose inferred
Protocol: (§1)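 Human cancer cell lines in 384-well plates, medium with 10% serum, drug for 72 h over a 256-fold dose range (nine 2-fold or five 4-fold steps up to the top dose). Adherent lines were fixed and stained with the nucleic acid dye Syto60, suspension lines read with resazurin; signal relative to control wells, capped at 0 and 100%. One two-parameter sigmoid per drug and line, fitted in a mixed model over all curves with the slope shared within a line.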

Compared with 8-MG-BA (glioma, adherent), 22RV1 (prostate, adherent) is higher in AUC: 0.851 for the first, 0.969 for the second.

Compared with 42-MG-BA (glioma, adherent), 201T (lung adenocarcinoma, adherent) is higher in AUC: 0.702 for the first, 0.962 for the second.

Compared with 451Lu (melanoma, adherent), 639-V (bladder, adherent) is lower in AUC: 0.968 for the first, 0.891 for the second.

Going from 647-V (bladder, adherent) to “697 (lymphoblastic leukaemia, suspension)”, the AUC falls from 0.98 to 0.96.

First: 786-0 (kidney, adherent)
Second: 5637 (bladder, adherent)
The AUC of the first is higher: 0.958 for the first, 0.85 for the second.

Going from 8305C (thyroid, adherent) to 8505C (thyroid, adherent), the AUC falls from 0.956 to 0.946.

For 23132-87 (stomach, adherent), the AUC was 0.986.

First: 8-MG-BA (glioma, adherent)
Second: 22RV1 (prostate, adherent)
The IC50 of the first is lower: 3470 nM for the first, greater than 5000 nM for the second.

Compared with 42-MG-BA (glioma, adherent), 201T (lung adenocarcinoma, adherent) is higher in IC50: 1210 nM for the first, greater than 5000 nM for the second.

Going from 451Lu (melanoma, adherent) to 639-V (bladder, adherent), the IC50 falls from greater than 5000 nM to 4310 nM.

647-V (bladder, adherent) and “697 (lymphoblastic leukaemia, suspension)” cannot be ordered by IC50: greater than 5000 nM for the first, greater than 5000 nM for the second.

Going from 786-0 (kidney, adherent) to 5637 (bladder, adherent), the IC50 falls from greater than 5000 nM to 3270 nM.

8305C (thyroid, adherent) and 8505C (thyroid, adherent) cannot be ordered by IC50: greater than 5000 nM for the first, greater than 5000 nM for the second.

For 23132-87 (stomach, adherent), the IC50 was greater than 5000 nM.

Compound: COc1ncc(-c2ccc3nccc(-c4ccnnc4)c3c2)cc1NS(=O)(=O)c1ccc(F)cc1F [GSK2126458]
Experiment: as above
Settings: top dose inferred
Protocol: as §1

First: TE-441-T (rhabdomyosarcoma, adherent, top dose 0.128 µM)
Second: TGBC1TKB (biliary tract, adherent, top dose 0.128 µM)
The AUC of the first is lower: 0.864 for the first, 0.934 for the second.

Compared with “TGBC11TKB (stomach, adherent, top dose 0.128 µM)”, “TGBC24TKB (biliary tract, adherent, top dose 0.128 µM)” is lower in AUC: 0.992 for the first, 0.788 for the second.

Going from “TGW (neuroblastoma, adherent, top dose 0.128 µM)” to “THP-1 (acute myeloid leukaemia, suspension, top dose 0.128 µM)”, the AUC falls from 0.88 to 0.551.

First: TK10 (kidney, adherent, top dose 0.128 µM)
Second: TK (B-cell lymphoma, suspension, top dose 0.128 µM)
The AUC of the first is higher: 0.69 for the first, 0.45 for the second.

“TMK-1 (stomach, adherent, top dose 0.128 µM)” and “TOV-21G (ovary, adherent, top dose 0.128 µM)” are the same in AUC: 0.908 for the first, 0.908 for the second.

Compared with “TOV-112D (ovary, adherent, top dose 0.128 µM)”, “TT2609-C02 (thyroid, adherent, top dose 0.128 µM)” is higher in AUC: 0.562 for the first, 0.847 for the second.

First: TT (thyroid, adherent, top dose 0.128 µM)
Second: TUR (B-cell lymphoma, suspension, top dose 0.128 µM)
The AUC of the first is higher: 0.971 for the first, 0.421 for the second.

Going from “TYK-nu (ovary, adherent, top dose 0.128 µM)” to “U031 (kidney, adherent, top dose 0.128 µM)”, the AUC falls from 0.962 to 0.716.

First: U251 (glioma, adherent, top dose 0.128 µM)
Second: U-2-OS (osteosarcoma, adherent, top dose 0.128 µM)
The AUC of the first is lower: 0.76 for the first, 0.9 for the second.

Compared with “U-87-MG (glioma, adherent, top dose 0.128 µM)”, “U-118-MG (glioma, adherent, top dose 0.128 µM)” is lower in AUC: 0.606 for the first, 0.563 for the second.

First: U-698-M (B-cell leukaemia, suspension, top dose 0.128 µM)
Second: UACC-62 (melanoma, adherent, top dose 0.128 µM)
The AUC of the first is higher: 0.924 for the first, 0.74 for the second.

First: UACC-257 (melanoma, adherent, top dose 0.128 µM)
Second: UACC-812 (breast, adherent, top dose 0.128 µM)
The AUC of the first is lower: 0.792 for the first, 0.827 for the second.

First: UACC-893 (breast, adherent, top dose 0.128 µM)
Second: UM-UC-3 (bladder, adherent, top dose 0.128 µM)
The AUC of the first is higher: 0.559 for the first, 0.431 for the second.

Going from “UMC-11 (lung carcinoid, adherent, top dose 0.128 µM)” to “UWB1.289 (ovary, adherent, top dose 0.128 µM)”, the AUC falls from 0.859 to 0.822.

First: VA-ES-BJ (soft tissue, adherent, top dose 0.128 µM)
Second: VAL (B-cell lymphoma, suspension, top dose 0.128 µM)
The AUC of the first is higher: 0.787 for the first, 0.658 for the second.

First: VCaP (prostate, adherent, top dose 0.128 µM)
Second: VM-CUB-1 (bladder, adherent, top dose 0.128 µM)
The AUC of the first is lower: 0.41 for the first, 0.932 for the second.

First: VMRC-MELG (melanoma, adherent, top dose 0.128 µM)
Second: VMRC-RCW (kidney, adherent, top dose 0.128 µM)
The AUC of the first is higher: 0.956 for the first, 0.866 for the second.

Going from “VMRC-RCZ (kidney, adherent, top dose 0.128 µM)” to “WIL2-NS (lymphoid neoplasm, suspension, top dose 0.128 µM)”, the AUC falls from 0.789 to 0.445.

Compared with “WM35 (melanoma, adherent, top dose 0.128 µM)”, “WM278 (melanoma, adherent, top dose 0.128 µM)” is higher in AUC: 0.338 for the first, 0.855 for the second.

Going from “WM793B (melanoma, adherent, top dose 0.128 µM)” to “WM1552C (melanoma, adherent, top dose 0.128 µM)”, the AUC falls from 0.629 to 0.543.

Compared with “WM-115 (melanoma, adherent, top dose 0.128 µM)”, “WSU-DLCL2 (B-cell lymphoma, suspension, top dose 0.128 µM)” is higher in AUC: 0.474 for the first, 0.751 for the second.

Going from “WSU-NHL (lymphoid neoplasm, suspension, top dose 0.128 µM)” to “YAPC (pancreas, adherent, top dose 0.128 µM)”, the AUC rises from 0.796 to 0.888.

Going from “YH-13 (glioma, adherent, top dose 0.128 µM)” to “YKG-1 (glioma, adherent, top dose 0.128 µM)”, the AUC falls from 0.777 to 0.561.

First: YMB-1-E (breast, adherent, top dose 0.128 µM)
Second: YT (lymphoid neoplasm, suspension, top dose 0.128 µM)
The AUC of the first is higher: 0.607 for the first, 0.171 for the second.

Going from “huH-1 (liver, adherent, top dose 0.128 µM)” to “no-10 (glioma, adherent, top dose 0.128 µM)”, the AUC falls from 0.983 to 0.814.

With “no-11 (glioma, adherent, top dose 0.128 µM)” the AUC was 0.766.

Compared with “TE-441-T (rhabdomyosarcoma, adherent, top dose 0.128 µM)”, “TGBC1TKB (biliary tract, adherent, top dose 0.128 µM)” is higher in IC50: 104 nM for the first, greater than 128 nM for the second.

Going from “TGBC11TKB (stomach, adherent, top dose 0.128 µM)” to “TGBC24TKB (biliary tract, adherent, top dose 0.128 µM)”, the IC50 falls from greater than 128 nM to 52.3 nM.

Compared with “TGW (neuroblastoma, adherent, top dose 0.128 µM)”, “THP-1 (acute myeloid leukaemia, suspension, top dose 0.128 µM)” is 9.3-fold lower in IC50: 101 nM for the first, 10.9 nM for the second.

Going from “TK10 (kidney, adherent, top dose 0.128 µM)” to “TK (B-cell lymphoma, suspension, top dose 0.128 µM)”, the IC50 falls from 30.9 nM to 5.92 nM (5.2-fold).

“TMK-1 (stomach, adherent, top dose 0.128 µM)” and “TOV-21G (ovary, adherent, top dose 0.128 µM)” cannot be ordered by IC50: greater than 128 nM for the first, greater than 128 nM for the second.

Going from “TOV-112D (ovary, adherent, top dose 0.128 µM)” to “TT2609-C02 (thyroid, adherent, top dose 0.128 µM)”, the IC50 rises from 11.9 nM to 103 nM (8.7-fold).

Going from “TT (thyroid, adherent, top dose 0.128 µM)” to “TUR (B-cell lymphoma, suspension, top dose 0.128 µM)”, the IC50 falls from greater than 128 nM to 4.94 nM.

First: TYK-nu (ovary, adherent, top dose 0.128 µM)
Second: U031 (kidney, adherent, top dose 0.128 µM)
The IC50 of the first is higher: greater than 128 nM for the first, 33.6 nM for the second.

First: U251 (glioma, adherent, top dose 0.128 µM)
Second: U-2-OS (osteosarcoma, adherent, top dose 0.128 µM)
The IC50 of the first is lower: 43 nM for the first, greater than 128 nM for the second.

“U-87-MG (glioma, adherent, top dose 0.128 µM)” and “U-118-MG (glioma, adherent, top dose 0.128 µM)” are within 1.5-fold of each other in IC50: 16.5 nM for the first, 12.2 nM for the second.

Going from “U-698-M (B-cell leukaemia, suspension, top dose 0.128 µM)” to “UACC-62 (melanoma, adherent, top dose 0.128 µM)”, the IC50 falls from greater than 128 nM to 38.6 nM.

“UACC-257 (melanoma, adherent, top dose 0.128 µM)” and “UACC-812 (breast, adherent, top dose 0.128 µM)” are within 1.5-fold of each other in IC50: 74.1 nM for the first, 74.9 nM for the second.

Going from “UACC-893 (breast, adherent, top dose 0.128 µM)” to “UM-UC-3 (bladder, adherent, top dose 0.128 µM)”, the IC50 falls from 12.2 nM to 5.26 nM (2.3-fold).

Compared with “UMC-11 (lung carcinoid, adherent, top dose 0.128 µM)”, “UWB1.289 (ovary, adherent, top dose 0.128 µM)” is higher in IC50: 88.6 nM for the first, greater than 128 nM for the second.

Going from “VA-ES-BJ (soft tissue, adherent, top dose 0.128 µM)” to “VAL (B-cell lymphoma, suspension, top dose 0.128 µM)”, the IC50 falls from 59.1 nM to 22 nM (2.7-fold).

Going from “VCaP (prostate, adherent, top dose 0.128 µM)” to “VM-CUB-1 (bladder, adherent, top dose 0.128 µM)”, the IC50 rises from 4.49 nM to greater than 128 nM.

Going from “VMRC-MELG (melanoma, adherent, top dose 0.128 µM)” to “VMRC-RCW (kidney, adherent, top dose 0.128 µM)”, the IC50 falls from greater than 128 nM to 100 nM.

First: VMRC-RCZ (kidney, adherent, top dose 0.128 µM)
Second: WIL2-NS (lymphoid neoplasm, suspension, top dose 0.128 µM)
The IC50 of the first is 11-fold higher: 66.9 nM for the first, 5.84 nM for the second.

First: WM35 (melanoma, adherent, top dose 0.128 µM)
Second: WM278 (melanoma, adherent, top dose 0.128 µM)
The IC50 of the first is 43-fold lower: 2.83 nM for the first, 123 nM for the second.

First: WM793B (melanoma, adherent, top dose 0.128 µM)
Second: WM1552C (melanoma, adherent, top dose 0.128 µM)
The IC50 of the first is 1.8-fold higher: 18.9 nM for the first, 10.5 nM for the second.

Compared with “WM-115 (melanoma, adherent, top dose 0.128 µM)”, “WSU-DLCL2 (B-cell lymphoma, suspension, top dose 0.128 µM)” is 5.4-fold higher in IC50: 6.68 nM for the first, 35.9 nM for the second.

Compared with “WSU-NHL (lymphoid neoplasm, suspension, top dose 0.128 µM)”, “YAPC (pancreas, adherent, top dose 0.128 µM)” is higher in IC50: 51.7 nM for the first, greater than 128 nM for the second.

Going from “YH-13 (glioma, adherent, top dose 0.128 µM)” to “YKG-1 (glioma, adherent, top dose 0.128 µM)”, the IC50 falls from 54.4 nM to 11.7 nM (4.6-fold).

First: YMB-1-E (breast, adherent, top dose 0.128 µM)
Second: YT (lymphoid neoplasm, suspension, top dose 0.128 µM)
The IC50 of the first is 18-fold higher: 17.5 nM for the first, 1 nM for the second.

First: huH-1 (liver, adherent, top dose 0.128 µM)
Second: no-10 (glioma, adherent, top dose 0.128 µM)
The IC50 of the first is higher: greater than 128 nM for the first, 90.7 nM for the second.

For “no-11 (glioma, adherent, top dose 0.128 µM)”, the IC50 was 59.1 nM.
